Sequences with one replicate were seen in a single cluster, so their values are uncertain.
Test system: ATP
Assay: switch fluorescence ratio, 500 uM ATP over buffer (Cy3 cluster intensity, sum of 5 cycles each) (fold (ratio)); higher = stronger signal-on switching upon ATP binding; sequences stand for … in TCGTCGGCAGCGTCAGATGTGTATAAGAGACAGTTTTTTTTTTTTTTTTTTTTTTTTT…TC
Conditions: aptamer strand: ATP DNA aptamer (quencher-CACCTGGGGGAGTATTGCGGAGGAAGG + anchor), 100 nM annealed; ATP concentration: 500 uM; one replicate
Outline: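 Five buffer/ATP imaging cycles were run on Cy3-labelled switching-strand clusters on a modified Illumina MiSeq flow-cell, with NaOH stripping and re-annealing between cycles. In each cycle, clusters annealed to 100 nM quencher-labelled ATP aptamer were imaged in selection buffer, then after 15 min with 500 uM ATP at 22 °C. Per cluster, the fluorescence ratio is summed target-cycle over summed buffer-cycle Cy3 intensity, averaged per switch-domain sequence. Only clusters within 100-1000 RFU were kept.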
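Further: ATP exposure 15 min at 22 °C before imaging.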

Q: CTATCATGTG was tested. Which switch fluorescence ratio did it give?
A: 0.991

Q: How did the switch fluorescence ratio turn out when CTATCCATTT was run?
A: 0.971

Q: Which switch fluorescence ratio does the source give for CTATCCGGC here?
A: 1.01

Q: Which switch fluorescence ratio does the source give for CTATCGAATG here?
A: 1

Q: CTATGAAGCG was tested. Which switch fluorescence ratio did it give?
A: 0.982

Q: CTATGAGCAG was tested. Which switch fluorescence ratio did it give?
A: 1.13

Q: Which switch fluorescence ratio does the source give for CTATGAGCAT here?
A: 1.12

Q: How did the switch fluorescence ratio turn out when CTATGGGTTC was run?
A: 1

Q: Which switch fluorescence ratio does the source give for CTATGTAACG here?
A: 0.972

Q: Which switch fluorescence ratio does the source give for CTATGTAGGA here?
A: 1

Q: How did the switch fluorescence ratio turn out when CTATGTGCTA was run?
A: 0.973

Q: How did the switch fluorescence ratio turn out when CTATTAAAAT was run?
A: 0.984

Q: With CTATTATGCG as the sequence, how does the switch fluorescence ratio read?
A: 0.984

Q: Which switch fluorescence ratio does the source give for CTATTCCATT here?
A: 1.01

Q: CTATTGGGTA was tested. Which switch fluorescence ratio did it give?
A: 1.04

Q: With CTATTGTAGA as the sequence, how does the switch fluorescence ratio read?
A: 1

Q: With CTCAAATCCA as the sequence, how does the switch fluorescence ratio read?
A: 1.01

Q: Which switch fluorescence ratio does the source give for CTCAACCCGT here?
A: 1.02

Q: CTCAACCGAT was tested. Which switch fluorescence ratio did it give?
A: 1.03

Q: How did the switch fluorescence ratio turn out when CTCAACGACT was run?
A: 1

Q: With CTCAACGATC as the sequence, how does the switch fluorescence ratio read?
A: 1.22

Q: For CTCAACTGGT, which switch fluorescence ratio is on record?
A: 1.04

Q: Which switch fluorescence ratio does the source give for CTCAATATGT here?
A: 1.04

Q: How did the switch fluorescence ratio turn out when CTCAATGTGT was run?
A: 1.01

Q: With CTCACACTCT as the sequence, how does the switch fluorescence ratio read?
A: 1.08

Q: CTCACCTCTC was tested. Which switch fluorescence ratio did it give?
A: 1.09

Q: With CTCACTTGAG as the sequence, how does the switch fluorescence ratio read?
A: 0.997

Q: How did the switch fluorescence ratio turn out when CTCAGTCAGA was run?
A: 0.999

Q: CTCAGTGGCT was tested. Which switch fluorescence ratio did it give?
A: 0.982

Q: Which switch fluorescence ratio does the source give for CTCAGTGGGA here?
A: 0.919

Q: Which switch fluorescence ratio does the source give for CTCAGTGTAG here?
A: 0.989

Q: How did the switch fluorescence ratio turn out when CTCATATCTT was run?
A: 0.99

Q: How did the switch fluorescence ratio turn out when CTCATCGGG was run?
A: 1.04

Q: Which switch fluorescence ratio does the source give for CTCATGGAAG here?
A: 0.974

Q: How did the switch fluorescence ratio turn out when CTCATTCGGA was run?
A: 0.996

Q: How did the switch fluorescence ratio turn out when CTCATTTCGT was run?
A: 0.987

Q: Which switch fluorescence ratio does the source give for CTCATTTCTG here?
A: 0.988

Q: With CTCCACTAGA as the sequence, how does the switch fluorescence ratio read?
A: 1.18

Q: For CTCCATGCGC, which switch fluorescence ratio is on record?
A: 1.8

Q: CTCCATTATT was tested. Which switch fluorescence ratio did it give?
A: 1.03

Q: With CTCCCCCTCG as the sequence, how does the switch fluorescence ratio read?
A: 4.72

Q: For CTCCGCGCCT, which switch fluorescence ratio is on record?
A: 5.31

Q: With CTCCGCGGCG as the sequence, how does the switch fluorescence ratio read?
A: 2.84

Q: For CTCCGGCGTA, which switch fluorescence ratio is on record?
A: 1.17

Q: CTCCGGGGTG was tested. Which switch fluorescence ratio did it give?
A: 2.59

Q: How did the switch fluorescence ratio turn out when CTCCGGGTTT was run?
A: 1.42

Q: With CTCCGGTTGA as the sequence, how does the switch fluorescence ratio read?
A: 1.9

Q: How did the switch fluorescence ratio turn out when CTCCGTTGGG was run?
A: 1.92

Q: Which switch fluorescence ratio does the source give for CTCCTCGTAC here?
A: 3.15

Q: For CTCCTGAAGC, which switch fluorescence ratio is on record?
A: 1.37

Q: How did the switch fluorescence ratio turn out when CTCCTGGTTG was run?
A: 1.08

Q: With CTCCTTGTCA as the sequence, how does the switch fluorescence ratio read?
A: 1.02

Q: For CTCGAAACGA, which switch fluorescence ratio is on record?
A: 1.04

Q: For CTCGAAGGCA, which switch fluorescence ratio is on record?
A: 1.04

Q: For CTCGAAGTAA, which switch fluorescence ratio is on record?
A: 1.66

Q: Which switch fluorescence ratio does the source give for CTCGAATGTT here?
A: 1.04

Q: For CTCGACGGTC, which switch fluorescence ratio is on record?
A: 1.04

Q: For CTCGAGAACT, which switch fluorescence ratio is on record?
A: 0.993

Q: For CTCGAGAGGA, which switch fluorescence ratio is on record?
A: 1.04

Q: How did the switch fluorescence ratio turn out when CTCGAGTACT was run?
A: 1.05

Q: CTCGATCTTC was tested. Which switch fluorescence ratio did it give?
A: 1.02

Q: With CTCGCACGAG as the sequence, how does the switch fluorescence ratio read?
A: 1.11

Q: How did the switch fluorescence ratio turn out when CTCGCCTGGG was run?
A: 1.59

Q: Which switch fluorescence ratio does the source give for CTCGCTACAT here?
A: 1.25

Q: Which switch fluorescence ratio does the source give for CTCGCTGATG here?
A: 1.03

Q: For CTCGGAAGCT, which switch fluorescence ratio is on record?
A: 1.04

Q: Which switch fluorescence ratio does the source give for CTCGGCAGAA here?
A: 2.34

Q: CTCGGTCAGA was tested. Which switch fluorescence ratio did it give?
A: 1.03

Q: Which switch fluorescence ratio does the source give for CTCGGTGGGT here?
A: 0.996

Q: With CTCGGTTGCA as the sequence, how does the switch fluorescence ratio read?
A: 1

Q: Which switch fluorescence ratio does the source give for CTCGTACCAA here?
A: 1.11

Q: CTCGTAGGAA was tested. Which switch fluorescence ratio did it give?
A: 1.03

Q: How did the switch fluorescence ratio turn out when CTCGTAGGTT was run?
A: 0.971

Q: CTCGTCACCA was tested. Which switch fluorescence ratio did it give?
A: 1.07

Q: CTCGTGCTAG was tested. Which switch fluorescence ratio did it give?
A: 0.974

Q: Which switch fluorescence ratio does the source give for CTCGTGGGGT here?
A: 0.991
